These are yes or no findings as the source states them, for the method shown. Binding seen in cells or lysates may run through a third protein.
B1: Mff (protein, UniProt Q9GZY8 1-342)
chain: MSKGTSSDTSLGRVSRAAFPSPTAAEMAEISRIQYEMEYTEGISQRMRVPEKLKVAPPNADLEQGFQEGVPNASVIMQVPERIVVAGNNEDVSFSRPADLDLIQSTPFKPLALKTPPRVLTLSERPLDFLDLERPPTTPQNEEIRAVGRLKRERSMSENAVRQNGQLVRNDSLWHRSDSAPRNKISRFQAPISAPEYTVTPSPQQARVCPPHMLPEDGANLSSARGILSLIQSSTRRAYQQILDVLDENRRPVLRGGSAAATSNPHHDNVRYGISNIDTTIEGTSDDLTVVDAASLRRQIIKLNRRLQLLEEENKERAKREMVMYSITVAFWLLNSWLWFRR
B2: Mid49 (protein, UniProt Q96C03 1-454)
chain: MAEFSQKRGKRRSDEGLGSMVDFLLANARLVLGVGGAAVLGIATLAVKRFIDRATSPRDEDDTKADSWKELSLLKATPHLQPRPPPAALSQPVLPLAPSSSAPEGPAETDPEVTPQLSSPAPLCLTLQERLLAFERDRVTIPAAQVALAKQLAGDIALELQAYFRSKFPELPFGAFVPGGPLYDGLQAGAADHVRLLVPLVLEPGLWSLVPGVDTVARDPRCWAVRRTQLEFCPRGSSPWDRFLVGGYLSSRVLLELLRKALAASVNWPAIGSLLGCLIRPSMASEELLLEVQHERLELTVAVLVAVPGVDADDRLLLAWPLEGLAGNLWLQDLYPVEAARLRALDDHDAGTRRRLLLLLCAVCRGCSALGQLGRGHLTQVVLRLGEDNVDWTEEALGERFLQALELLIGSLEQASLPCHFNPSVNLFSSLREEEIDDIGYALYSGLQEPEGLL

By UniProt entry, the sequences of proteins in these tests, tags left out. Residues count along the entry.
UniProt P08581, residues 25-1390: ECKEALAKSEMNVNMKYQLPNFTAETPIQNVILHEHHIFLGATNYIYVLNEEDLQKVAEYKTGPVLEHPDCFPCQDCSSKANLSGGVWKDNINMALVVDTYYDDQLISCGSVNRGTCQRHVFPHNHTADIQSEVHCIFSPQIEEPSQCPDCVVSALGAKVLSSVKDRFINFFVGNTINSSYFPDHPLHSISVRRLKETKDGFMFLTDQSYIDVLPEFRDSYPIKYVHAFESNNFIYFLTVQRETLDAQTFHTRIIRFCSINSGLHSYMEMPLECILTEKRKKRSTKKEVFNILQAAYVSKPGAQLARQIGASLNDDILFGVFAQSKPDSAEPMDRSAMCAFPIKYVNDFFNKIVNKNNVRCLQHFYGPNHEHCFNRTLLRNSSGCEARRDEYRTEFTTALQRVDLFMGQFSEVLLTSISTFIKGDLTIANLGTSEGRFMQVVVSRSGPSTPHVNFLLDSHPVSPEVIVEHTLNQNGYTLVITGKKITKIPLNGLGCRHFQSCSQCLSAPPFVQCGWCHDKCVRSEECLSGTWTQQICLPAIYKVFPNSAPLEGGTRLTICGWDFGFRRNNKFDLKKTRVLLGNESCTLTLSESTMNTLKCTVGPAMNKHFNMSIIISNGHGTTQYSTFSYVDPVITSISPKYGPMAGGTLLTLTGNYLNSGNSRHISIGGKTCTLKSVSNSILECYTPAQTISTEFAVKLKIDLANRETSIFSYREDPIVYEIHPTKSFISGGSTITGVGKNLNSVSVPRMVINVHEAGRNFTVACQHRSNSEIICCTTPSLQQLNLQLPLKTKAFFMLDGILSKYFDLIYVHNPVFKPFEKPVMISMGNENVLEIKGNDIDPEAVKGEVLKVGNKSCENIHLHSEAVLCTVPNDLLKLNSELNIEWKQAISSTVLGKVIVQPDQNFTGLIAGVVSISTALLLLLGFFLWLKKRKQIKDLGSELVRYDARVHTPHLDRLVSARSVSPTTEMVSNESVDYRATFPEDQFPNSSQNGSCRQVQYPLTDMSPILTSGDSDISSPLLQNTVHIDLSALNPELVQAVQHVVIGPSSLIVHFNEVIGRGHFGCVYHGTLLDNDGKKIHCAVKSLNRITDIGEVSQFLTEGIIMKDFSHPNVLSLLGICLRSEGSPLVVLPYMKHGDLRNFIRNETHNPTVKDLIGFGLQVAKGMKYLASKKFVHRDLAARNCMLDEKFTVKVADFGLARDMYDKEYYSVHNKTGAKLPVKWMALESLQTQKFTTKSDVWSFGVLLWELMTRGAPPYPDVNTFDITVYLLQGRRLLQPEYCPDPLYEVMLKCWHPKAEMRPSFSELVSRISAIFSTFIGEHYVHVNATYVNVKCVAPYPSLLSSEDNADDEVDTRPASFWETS

Biological target: exogenous Met (human) (UniProt P08581)
Assay: co-IP; exogenous Met in Huh7 cells, with or without HGF (Supplementary Fig. S2f)

Binder	binding
B1	no binding
B2	no binding
